Data taken from PubChem BioAssay AID485281 (National Center for Advancing Translational Sciences (NCATS), 2010).
Hit rate of the full screen: of about 350,000 compounds, about 260 (0.074%) were called active. Inconclusive results, whose numbers are uncertain, are shown with a selection of clear calls. Calls follow the shape of the dose curve; as a rule, active = well fitted inhibition curve with a large enough effect; inconclusive = small, poorly fitted or top-dose-only effect; inactive = no such curve, though single readings can be large or run the other way. Potencies beside an inconclusive call are fits to weak or partial responses and may not hold up.

target: Ferritin light chain (Equus caballus) (UniProt P02791); experiment: qHTS Assay for Identification of Novel General Anesthetics; details: apoferritin/1-aminoanthracene competitive binding, fluorescence; series mostly up to 77.5 µM; also: nearly all actives have a fitted effect of over 20% in size
UniProt P02791, sequence (P02791 whole entry, looked up): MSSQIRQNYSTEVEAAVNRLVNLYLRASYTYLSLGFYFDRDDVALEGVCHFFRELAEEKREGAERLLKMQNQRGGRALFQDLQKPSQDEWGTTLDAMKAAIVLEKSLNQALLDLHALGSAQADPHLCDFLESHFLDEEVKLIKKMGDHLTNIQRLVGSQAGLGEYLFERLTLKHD
In short: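 Probe: 1-aminoanthracene (50% saturated, PBS). Protein: horse-spleen apoferritin, 10 uM. Incubation: 10 min, room temperature. Detection: 380 nm excitation, 535 nm emission. Analysis: normalized response, four-parameter Hill.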
Potency is read from the fitted curve at half-maximal effect; tags tell the direction and shape of the fitted curve.

Potency, inconclusive:
Cc1nn(Cc2cccc(C(=O)Nc3ccn(Cc4c(F)c(F)cc(F)c4F)n3)c2)c(C)c1[N+](=O)[O-] 11.2 µM [inhibitor, partial curve]
Cc1cccc(Oc2ccccc2N)c1 25.1 µM [inhibitor, partial curve]
O=C(CSc1nnc(Cc2cccs2)n1-c1ccccc1)NCc1ccc2c(c1)OCO2 35.5 µM [inhibitor, single point]
O=C(Nc1ccc(Br)cc1)c1ccc(F)c(S(=O)(=O)NC2CCCCCC2)c1 10 µM [inhibitor, partial curve]
O=C(NC1C2CC3CC(C2)CC1C3)c1ccc2c(c1)OCO2 (stereo not given) 7.94 µM [inhibitor, full curve]
Cc1ccc2c(c1)cc(CN(CCc1ccccc1)C(=O)N1CCOCC1)c1nnnn12 12.6 µM [inhibitor, partial curve]
Cc1cc(NC(=O)NCc2ccccc2)c(=O)n(Cc2ccccc2F)c1 5.62 µM [inhibitor, partial curve]
Cc1cc(=O)oc2cc(OCC(=O)Nc3ccc(N4CCC(C)CC4)cc3)ccc12 28.2 µM [inhibitor, partial curve]
O=S(=O)(/C=C/c1ccccc1)NC1CCCCCCC1 28.2 µM [inhibitor, single point]
Cc1ccc(NC(=O)CCCC(=O)OC(C)C(=O)c2ccccc2)cc1 (stereo not given) 50.1 µM [inhibitor, single point]
CCOC(=O)C1CCCN(C(=S)Nc2cc(C)cc(C)c2)C1 (stereo not given) 31.6 µM [inhibitor, single point]
O=C(CCn1cnc2onc(-c3ccc(F)cc3)c2c1=O)Nc1ccc(F)c(Cl)c1 4.47 µM [inhibitor, full curve, poor fit]
Cc1cccc(NC(=O)c2ccc3nc(N4CCOCC4)sc3c2)c1C 50.1 µM [inhibitor, single point]
O=[N+]([O-])c1ccc(N2CCOCC2)nc1 28.2 µM [inhibitor, single point]
Cc1ccc(-n2ncc(C(=O)NCc3ccc4c(c3)OCO4)c2NC(=O)c2ccco2)cc1C 28.2 µM [inhibitor, partial curve]
COCCCNCCCOc1ccc(C(C)(C)c2ccccc2)cc1 6.31 µM [inhibitor, full curve, poor fit]
O=C(COc1ccccc1F)OCc1cc(=O)n2nc(C3CCCCC3)sc2n1 35.5 µM [inhibitor, partial curve]
CCOc1ccc(S(=O)(=O)NCc2ccccc2OC)cc1 28.2 µM [inhibitor, partial curve]
Nc1cc2c(cc1C(=O)c1ccccc1F)OCCO2 28.2 µM [inhibitor, single point]
Cc1cccc(Cn2cc(/C=C/[N+](=O)[O-])c3ccccc32)c1 20 µM [inhibitor, partial curve]
CCC(CC)C(=O)Nc1ccc(Cl)c(Cl)c1 10 µM [inhibitor, partial curve]
Cc1nc2nc(SCC(=O)N(C)Cc3ccccc3)nn2c(C)c1Cc1ccccc1Cl 12.6 µM [inhibitor, partial curve]
O=C(c1ccc([N+](=O)[O-])cc1)N1CCN=C1SCc1ccccc1 22.4 µM [inhibitor, partial curve]
O=c1c2c3c(sc2ncn1/N=C/c1ccco1)CCCC3 56.2 µM [inhibitor, single point]
COc1ccc(NC(=O)NNC(=O)CCC(=O)Nc2ccccc2Cl)cc1 25.1 µM [inhibitor, partial curve]
O/N=C/c1cc(Cl)ccc1OCc1cccc2ccccc12 14.1 µM [inhibitor, partial curve]
O=C(CCC1CCCC1)Nc1ccon1 50.1 µM [inhibitor, single point]
CC(C)C(c1nnnn1C1CCCC1)N1CCN(c2ccccc2F)CC1 (stereo not given) 126 µM [inhibitor, partial curve]
Cc1ccc(Cn2ccc(C3CC3)n2)cc1 22.4 µM [inhibitor, partial curve]
Cc1[nH][nH]c(=O)c1C(c1c(C)[nH][nH]c1=O)c1cn(Cc2ccc(Cl)c(Cl)c2)c2ccccc12 44.7 µM [inhibitor, single point]
Cc1cc(C)cc(NC(=O)N2CCCCCCC2)c1 5.62 µM [inhibitor, partial curve]
CCOC(=O)CSc1nnc(COc2ccc3ccccc3c2)o1 3.55 µM [inhibitor, full curve]
COC(=O)c1ccc(/C=N/NC(=O)CC(=O)NC(C)C)cc1 14.1 µM [inhibitor, partial curve]
C/C(=N\NC(=O)CSc1nc2ccccc2o1)c1ccc(O)cc1 35.5 µM [inhibitor, single point]
Nc1ccc(C(=O)c2cccs2)cc1[N+](=O)[O-] 39.8 µM [inhibitor, single point]
O=C1c2ccccc2C(=O)C1c1ccc(Cl)cc1 31.6 µM [inhibitor, single point]
Cn1nnnc1SCCCNCc1cccc(OCc2ccccc2F)c1 14.1 µM [inhibitor, partial curve]
CC(Sc1ccsc1[N+](=O)[O-])C(=O)NCCc1ccc(Cl)cc1 (stereo not given) 28.2 µM [inhibitor, partial curve]
CC1CCCC(NC(=O)COC(=O)c2cccc(NS(=O)(=O)/C=C/c3ccccc3)c2)C1C (stereo not given) 14.1 µM [inhibitor, partial curve, poor fit]
C=CCOC(=O)CN1C(=O)c2ccccc2C1=O 39.8 µM [inhibitor, partial curve]
COc1cc(C(=S)N2CCOCC2)ccc1OC(=O)c1ccc(Br)cc1 14.1 µM [inhibitor, partial curve]
CC(C)CCNC(=O)NC(=O)CSc1nnc(-c2ccccc2Br)o1 35.5 µM [inhibitor, partial curve]
CCCSc1ncc(Cl)c(C(=O)Nc2ccc(S(=O)(=O)N3CCC(C)CC3)cc2)n1 10 µM [inhibitor, partial curve]
O=C/C(=C\Nc1ccc(Cl)cn1)c1nc2cc(Cl)ccc2o1 11.2 µM [inhibitor, single point]
O=C(CSc1nnc(CNC(=O)c2ccccc2F)o1)c1ccc(Cl)cc1 28.2 µM [inhibitor, partial curve]
Oc1ccccc1/C=N/N1CCCCC1 35.5 µM [inhibitor, single point]
Cc1ccc(-n2nc3c(=O)n(C(C)C(=O)NCCc4cccs4)nc(C)c3c2C)cc1 (stereo not given) 14.1 µM [inhibitor, partial curve]
O=C(/C=C\c1ccc2c(c1)OCO2)NC1CC(=O)N(c2ccccc2)C1 (stereo not given) 11.2 µM [inhibitor, single point]
CC(C)Cn1c(Cc2ccccc2)n[nH]c1=S 28.2 µM [inhibitor, single point]
CC(=O)c1cnc(Nc2cccc(Cl)c2Cl)s1 31.6 µM [inhibitor, partial curve]
CC(C)C(=O)NC(Nc1ccccc1F)C(Cl)(Cl)Cl (stereo not given) 25.1 µM [inhibitor, partial curve]

Potency, inactive:
CCSc1nnc(NC(=O)c2c(-c3ccccc3Cl)noc2C)s1
CCOC(=O)c1cc2c(=O)n3ccccc3nc2n(Cc2ccco2)c1=NC(=O)c1ccc(Br)cc1
O=C(/C=C\c1ccco1)c1ccc(NC(=O)c2ccco2)cc1
CCN(Cc1ccccc1)C(=O)CN1C(=O)NC(CC)(c2ccc(F)cc2)C1=O (stereo not given)
CC1(C)Cc2c(ccc3ccccc23)/C(=C/C(=O)N2CCCCC2)N1
O=C(CCCN1C(=O)/C(=C/c2cccc(Br)c2)SC1=S)Nc1cccnc1
Cc1ccc(NC(=O)CN(C)S(=O)(=O)c2ccc3c(c2)n(C)c(=O)c(=O)n3C)cc1F
CN1CCN(C(=O)CCN2C(=O)/C(=C/c3cccc(Br)c3)SC2=S)CC1
Cc1cc(=O)[nH]c(-c2ccccc2)n1
Cc1ccc(Cn2nc(C)c(NC(=O)CSc3nc4c(c(C(F)(F)F)n3)CCc3ccccc3-4)c2C)cc1
N#CC1=C(N)NC(SCc2ccc(Br)cc2)=C(C#N)C12CCCCC2
O=C(N/N=C\c1ccco1)Nc1cccc(Cl)c1
c1nnc(-c2ccc3c(c2)OCO3)o1
Cc1cc(C)c(NC(=O)CSc2n[nH]c(-c3ccccc3Cl)n2)c(C)c1
Cc1ccc2oc(=O)c(S(=O)(=O)c3ccc(F)cc3)cc2c1
Cn1c(CCNC(=O)c2ccco2)nc2cc(NS(=O)(=O)c3ccccc3)ccc21
CC(C)[C@H](NC(=O)[C@@H]1CSC2c3ccccc3C(=O)N21)C(=O)NC1CCCC1 (stereo not given in full)
CC(C)(C)S(=O)(=O)c1ccc2nc3c(n2c1)CCCC3
COc1ccc(CN(C)CC(=O)Nc2cc3oc4ccccc4c3cc2OC)c(OC)c1
